In PubChem BioAssay AID360 (National Center for Advancing Translational Sciences (NCATS), 2006) one finds Potency data, which are given here for 59 molecules.

The whole screen tested about 48,000 compounds, of which about 550 (1.1%) were called active. Not shown: some 4% with an inconclusive outcome. Rule as the data show it: active = potency below about 15 µM; inconclusive = mostly about 16 µM to 33 µM; inactive = weaker than that. The list shows a part of the results.
Potency is read from the fitted curve at half-maximal effect.

UniProt P04062, sequence (P04062 whole entry, looked up): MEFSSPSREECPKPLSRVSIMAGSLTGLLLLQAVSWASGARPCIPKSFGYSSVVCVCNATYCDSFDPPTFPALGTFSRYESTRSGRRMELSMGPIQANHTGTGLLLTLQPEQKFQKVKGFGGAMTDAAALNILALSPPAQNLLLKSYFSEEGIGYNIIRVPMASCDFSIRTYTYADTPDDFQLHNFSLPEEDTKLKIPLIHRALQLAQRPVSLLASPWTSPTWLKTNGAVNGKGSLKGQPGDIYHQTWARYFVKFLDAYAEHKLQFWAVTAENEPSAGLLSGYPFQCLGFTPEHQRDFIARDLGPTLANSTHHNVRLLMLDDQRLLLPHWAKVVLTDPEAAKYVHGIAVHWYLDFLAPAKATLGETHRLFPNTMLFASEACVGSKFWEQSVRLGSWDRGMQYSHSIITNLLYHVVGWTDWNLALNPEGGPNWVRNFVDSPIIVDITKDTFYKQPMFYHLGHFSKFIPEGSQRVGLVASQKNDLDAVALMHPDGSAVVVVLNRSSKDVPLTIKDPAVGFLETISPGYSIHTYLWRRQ

The assay concerns the target Lysosomal acid glucosylceramidase (Homo sapiens) (UniProt P04062). The assay can be described thus: Glucocerebrosidase.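 Also: the screen sought inhibitors.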 The following applies: purified enzyme, resorufin glucoside fluorescence (screen aimed at inhibitors), 20 min. The procedure, abridged:
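Wild-type enzyme at 0.2 nM final in 50mM citric acid/KH2PO4, 10mM sodium taurocholate, 0.01% tween-20, pH 5.9, with resorufin beta-D-glucopyranoside at 30 uM final. Compounds titrated, 20 min at RT, red fluorescence read; AC50 from titration.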
In the case of `CSc1nc(N)nc(SCC(=O)c2ccccc2)c1C#N`, the Potency is inactive: > 76.9 µM.

On to `O=C(Cn1ncc2c(=O)oc3ccccc3c21)NCCC1=CCCCC1`, for which the Potency is inactive: > 76.9 µM.

`Cc1cnc(-c2nnc(N(C)C(=O)c3cccnc3)s2)cn1`: the Potency is inactive: > 76.9 µM.

With `CCOc1ccc(OCC)c(NC(=O)CSc2nc3c(c(=O)n(C)c(=O)n3C)n2CC)c1`, the Potency was inactive: > 76.9 µM.

As for `COc1ccc(-n2ccnc2SCC(=O)Nc2ccccc2)cc1`, the Potency is inactive: > 76.9 µM.

As to `Cc1cc(C)n(-c2nc(SCC(=O)NCC3CCCO3)c3c4c(sc3n2)CCCC4)n1` (centres undefined), the Potency was inactive: > 76.9 µM.

As to `CN(C(=O)CSc1nnc(-c2ccco2)o1)C1CCCCC1`, the Potency is inactive: > 76.9 µM.

On to `COc1ccc(C)cc1NC(=O)CN1CCN(c2ccc(F)cc2)CC1`, for which the Potency was inactive: > 76.9 µM.

As for `CCn1c(=NC(=O)CSC(C)=O)sc2cc(F)ccc21`, the Potency was inactive: > 76.9 µM.

Take `Cn1nnc2cc(NC(=O)NCc3ccc4c(c3)OCO4)ccc21`: the Potency is inactive: > 76.9 µM.

`Nc1nnc(SCC(=O)NC2CCCCC2)n1-c1ccccc1`: the Potency was inactive: > 76.9 µM.

As for `COc1ccc(Br)cc1S(=O)(=O)n1ccnc1C`, the Potency is inactive: > 76.9 µM.

On to `O=c1c2ccccc2nc2n1-c1ccccc1CCC2`, for which the Potency is inactive: > 76.9 µM.

Regarding `CCOc1cc2c(cc1OCC)C(C(=O)O)C(c1ccc(OC)c(O)c1)N(C)C2=O` (centres undefined), the Potency was inactive: > 76.9 µM.

Regarding `CCOC(=O)c1ccc(N2C(=O)c3n[nH]c(C)c3C2c2ccc(OC)c(OC)c2)cc1` (centres undefined), the Potency was inactive: > 76.9 µM.

As for `CN=C1CC(C)(C)CC(=O)/C1=C(/O)CCC(=O)NC`, the Potency is inactive: > 76.9 µM.

With `O=C1CCC(=O)N1CCCCCc1nc(-c2ccccc2)no1`, the Potency was inactive: > 76.9 µM.

With `CCC(C)NC(=O)C(Cc1ccccc1)NS(=O)(=O)c1cccc2nsnc12` (centres undefined), the Potency was inactive: > 76.9 µM.

Turning to `Cc1ccc(C)c(-n2c(CNC(=O)c3ccco3)nnc2SCC(=O)Nc2nccs2)c1`, the Potency is inactive: > 76.9 µM.

For the molecule `CCOC(=O)C1CCN(C(=O)COc2ccc(Br)cc2)CC1`, the Potency is inactive: > 76.9 µM.

Consider `Cc1cc(C)c2nc(SCC(=O)N3CCCCC3)c(C#N)cc2c1`, for which the Potency is inactive: > 76.9 µM.

Turning to `COc1ccc(-c2cn3c(C)c(C(=O)NC(C)C)sc3n2)cc1`, the Potency is inactive: > 76.9 µM.

For the molecule `CN1CCN(CC(=O)N(Cc2c(C#N)c3ccccc3n2C)c2ccccc2)CC1`, the Potency was inactive: > 76.9 µM.

As to `Cc1ccccc1-c1noc(N)c1C#N`, the Potency was inactive: > 76.9 µM.

On to `O=C(O)c1cccc(S(=O)(=O)Nc2ccccc2Cl)c1`, for which the Potency was inactive: > 76.9 µM.

For `FC(F)(F)c1nnc2ccc(N3CCOCC3)nn12`, the Potency is inactive: > 76.9 µM.

With `CCOC(=O)CNC(=O)CSc1ncnc2c1cnn2-c1ccc(OC)cc1`, the Potency was inactive: > 76.9 µM.

`COc1ccc(OC)c2[nH]c(=O)c(CCNS(=O)(=O)c3ccccc3)cc12`: the Potency was inactive: > 76.9 µM.

As for `Cc1ccc(C)c(N2CCN(C(=O)Cn3cccc3)CC2)c1`, the Potency was inactive: > 76.9 µM.

For the molecule `CCOC(=O)C1CN(S(=O)(=O)c2ccc(C)cc2)CCN1S(=O)(=O)c1ccc(C)cc1` (centres undefined), the Potency was inactive: > 76.9 µM.

As for `Cc1oc(-c2cccc(Cl)c2)nc1CN1CCC(C(=O)NCc2ccco2)CC1`, the Potency was inactive: > 76.9 µM.

`O=c1[nH]c2c(s1)C(c1ccccc1)C1C3CCC(C3)C1S2` (centres undefined): the Potency was inactive: > 15.4 µM.

In the case of `Cc1oc2cc(OCC(=O)O)ccc2c(=O)c1Oc1ccccc1`, the Potency was inactive: > 76.9 µM.

As for `COc1cccc(CNCCOCCO)c1OC`, the Potency was inactive: > 76.9 µM.

For `O=C(NCCSCc1ccco1)Nc1cccc(Cl)c1`, the Potency was inactive: > 76.9 µM.

With `Cc1noc(C)c1C(=O)Nc1sc(C)c(-c2ccccc2)c1C#N`, the Potency was inactive: > 76.9 µM.

As to `COc1cc(-c2nnc(SCC(=O)N3CCCC3)o2)cc(OC)c1OC`, the Potency was inactive: > 76.9 µM.

With `c1ccc2c(Oc3ccc4c(c3)OCO4)nncc2c1`, the Potency was inactive: > 76.9 µM.

With `COc1ccc(NC(=O)NC2(C(=O)N3CCCCCC3)CCCCC2)cc1`, the Potency was inactive: > 76.9 µM.

Turning to `O=C(N1CCC(O)(c2cccnc2)CC1)C12CC3CC(CC(C3)C1)C2`, the Potency entry is “inactive”.

As to `Cc1ccc(S(=O)(=O)NC(CC(=O)O)c2ccccc2)c(C)c1` (centres undefined), the Potency is inactive: > 76.9 µM.

With `Cc1ccc(C(=O)NCc2nnc(SCC(=O)Nc3sc4c(c3C#N)CCCC4)n2C)cc1`, the Potency was inactive: > 76.9 µM.

Regarding `O=C(NCC12CC3CC(CC(C3)C1)C2)c1cc2n(n1)C(C(F)(F)F)CC(c1ccco1)N2` (centres undefined), the Potency was active: 13.1 µM.

For `COc1nc2c(C)cccc2cc1-c1noc(-c2ccco2)n1`, the Potency result was “inactive”.

Turning to `CC(C)COC(=O)C(N)C(C(=O)OCC(C)C)c1ccccc1` (centres undefined), the Potency was inactive: > 76.9 µM.

Consider `O=C(Nc1ccc(N2CCN(Cc3ccccc3)CC2)cc1)c1cccnc1`, for which the Potency was inactive: > 76.9 µM.

`COc1ccc(C2C3=C(CC(C)(C)CC3=O)Oc3ncn(Cc4ccco4)c(=N)c32)cc1` (centres undefined): the Potency is inactive: > 76.9 µM.

For the molecule `Cc1cc(C)n2nc(SCC(=O)NCc3ccco3)nc2n1`, the Potency was inactive: > 76.9 µM.

Regarding `O=C(CSc1nnc(Cc2ccccc2)n1-c1ccc(Cl)cc1)N1CCOCC1`, the Potency is inactive: > 76.9 µM.

Turning to `C=CCOc1cccc(C2/C(=C(/O)c3ccccc3)C(=O)C(=O)N2CCCN2CCOCC2)c1` (centres undefined), the Potency is inactive: > 76.9 µM.

As to `O=C(c1ccccc1)N1CCN(CC#Cc2ccccc2)CC1`, the Potency was inactive: > 76.9 µM.

Regarding `Cc1ccc2nc(NC3=NCN(Cc4cccnc4)CN3)nc(C)c2c1`, the Potency is inactive: > 76.9 µM.

Regarding `COC(=O)Nc1nnc(Cc2ccc(OC)cc2)s1`, the Potency was inactive: > 76.9 µM.

`COc1ccccc1OCC(=O)Nc1ccccn1`: the Potency is inactive: > 76.9 µM.

In the case of `CC(C)c1ccc(C(=O)N2CCN(CCO)CC2)cc1`, the Potency was inactive: > 76.9 µM.

In the case of `CC1(C)CC(=O)C=C(Nc2ccccn2)C1`, the Potency was inactive: > 76.9 µM.

As for `COc1cccc(CNC(=O)CN(C)S(=O)(=O)c2cnc[nH]2)c1`, the Potency is inactive: > 76.9 µM.

Turning to `CCOc1cc(C(=O)Nc2ccc3c(c2)OCO3)ccc1OC(F)F`, the Potency was inactive: > 76.9 µM.

On to `Fc1cccc(NCc2cn3ccccc3n2)c1`, for which the Potency is inactive: > 76.9 µM.
